The full ranking holds about 33,000 sequences; the median of “E-score (-0.5 to 0.5)” is about -0.043, and the highest 2% start at about 0.37. Some of the results follow.
Target: T1, Upc2 (UniProt Q12151)
T1 sequence: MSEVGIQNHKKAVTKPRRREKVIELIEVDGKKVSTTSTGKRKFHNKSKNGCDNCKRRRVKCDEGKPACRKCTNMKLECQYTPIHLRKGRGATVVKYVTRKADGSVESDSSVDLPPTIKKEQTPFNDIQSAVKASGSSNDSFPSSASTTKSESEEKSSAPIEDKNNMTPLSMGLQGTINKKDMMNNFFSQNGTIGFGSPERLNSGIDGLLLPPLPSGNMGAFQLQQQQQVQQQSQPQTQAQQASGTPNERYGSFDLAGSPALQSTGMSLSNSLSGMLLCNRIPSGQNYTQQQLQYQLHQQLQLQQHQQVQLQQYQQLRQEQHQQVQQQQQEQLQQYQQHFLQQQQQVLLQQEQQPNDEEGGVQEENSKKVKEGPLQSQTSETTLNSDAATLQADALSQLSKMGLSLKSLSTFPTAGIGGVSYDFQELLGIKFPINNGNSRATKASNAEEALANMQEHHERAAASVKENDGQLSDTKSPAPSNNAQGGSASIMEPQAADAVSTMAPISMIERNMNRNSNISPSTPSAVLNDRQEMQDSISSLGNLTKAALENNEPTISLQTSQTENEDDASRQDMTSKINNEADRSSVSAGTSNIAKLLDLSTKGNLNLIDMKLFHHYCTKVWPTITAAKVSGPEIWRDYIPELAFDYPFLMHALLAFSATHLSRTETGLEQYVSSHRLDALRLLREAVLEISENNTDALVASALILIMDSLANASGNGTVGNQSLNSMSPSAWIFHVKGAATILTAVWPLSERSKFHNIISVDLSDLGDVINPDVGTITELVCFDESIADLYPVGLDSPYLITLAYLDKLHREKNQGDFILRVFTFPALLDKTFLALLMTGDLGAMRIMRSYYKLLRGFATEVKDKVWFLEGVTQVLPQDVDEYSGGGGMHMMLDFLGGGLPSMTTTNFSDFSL
Assay: PBM E-score (8-mer binding enrichment) (E-score (-0.5 to 0.5)); higher = stronger / more preferred TF binding; most listed sequences are background and not binding sites
Settings: protein concentration: 200 nM; construct: GST-full length
How it was run: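 Each ungapped eight-base word and its reverse complement, pooled, received an E-score from the Universal PBM Analysis Suite. Underlying scans, normalised with masliner, recorded fluorescent anti-GST bound to GST-tagged yeast transcription factors. These were applied at about 100-200 nM to universal all-10-mer Agilent arrays double-stranded by primer extension.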

| Sequence | PBM E-score |
| --- | --- |
| ATTCGAAG | 0.134 |
| AGCTAAAA | 0.0318 |
| ATGGCATG | 0.209 |
| CATTTTAG | 0.0741 |
| CGCTCCAC | 0.0566 |
| ACAGCCTC | 0.00427 |
| TCTTTACA | -0.04 |
| AATGGTGT | -0.0602 |
| ATATTTCC | -0.168 |
| CCTGTCCC | 0.0617 |
| TATGCCGA | 0.12 |
| TGATCGAA | 0.0649 |
| GTCGGCGA | -0.0348 |
| CAGCTCAG | -0.184 |
| AGGGCGGA | -0.225 |
| ACCAAGTG | -0.196 |
| AGGGACTC | 0.0301 |
| CGTGTCCA | -0.194 |
| AGAACCTG | -0.0415 |
| ATGTCGTA | 0.45 |
| GATTAAAC | 0.29 |
| TAACGATA | 0.387 |
| AAGTTCGA | 0.042 |
| ATGCCTGC | -0.122 |
| CTACGTAA | 0.191 |

| Sequence | PBM E-score |
| --- | --- |
| ATGGAGGC | -0.106 |
| CATACAGA | -0.079 |
| TATGGCAA | -0.037 |
| CCTATCTC | -0.0763 |
| CTGGAGCA | -0.342 |
| GACGGCTC | -0.105 |
| AAATACCC | -0.0819 |
| AAGCTTGT | -0.0904 |
| GCCGTCAA | -0.0972 |
| CGAGCTTA | 0.0276 |
| CCTGATCC | -0.0689 |
| AGCGACAA | 0.143 |
| AAGGTTTG | 0.0347 |
| CTTCTGCC | 0.019 |
| GTTTGGCA | 0.21 |
| GCTCGGCC | -0.164 |
| GCAAAGCA | -0.0565 |
| CTATCGAC | -0.0386 |
| ACAGTACT | 0.0578 |
| CTCCCGTC | 0.141 |
| AGGGCTCA | -0.278 |
| AATCGGGA | -0.12 |
| ACAAATTC | -0.0428 |
| CAATCGGC | -0.289 |
| CCAAGCTC | 0.0545 |

| Sequence | PBM E-score |
| --- | --- |
| CACAATAA | 0.081 |
| CAGTATTC | 0.162 |
| GCCAAACA | -0.0676 |
| TGTGCCAA | -0.0795 |
| CCTGACAG | -0.256 |
| GCCGCACC | -0.0621 |
| CTGTACGC | 0.375 |
| GCCGAAAA | 0.0611 |
| AGTCAACT | -0.068 |
| CTAGTGCA | 0.00311 |
| CCAGCAGA | -0.328 |
| CTGCAAGC | -0.188 |
| CATCGGAG | -0.244 |
| CTGATCAA | -0.25 |
| AATCTAGG | -0.0686 |
| ACAGTGTG | -0.0237 |
| AGCGTGTA | 0.151 |
| CCAAAAGG | -0.318 |
| GTTGATCA | -0.0283 |
| GAATAGAC | -0.15 |
| GTGGGTGA | -0.117 |
| ACTGATGA | -0.0579 |
| GAAACCGA | 0.117 |
| CCTCAATC | -0.0762 |
| ACATAATA | 0.0823 |

| Sequence | PBM E-score |
| --- | --- |
| CACGGGGG | -0.0826 |
| TGACCTCA | -0.173 |
| CTTGGCAA | -0.0704 |
| CAATGCTG | -0.181 |
| GGAGTACA | -0.103 |
| CAAAAGCG | -0.13 |
| GGAATTCA | -0.0796 |
| ACAAAACT | -0.0618 |
| CGTCGTAC | 0.474 |
| ACTGGAGC | -0.244 |
| GGCACGAA | -0.163 |
| CAGATCTG | -0.248 |
| AATTAAGT | -0.0624 |
| CGACAAAC | 0.172 |
| AATTCAGA | -0.0136 |
| AGGGCTCC | -0.277 |
| GGGACATA | -0.135 |
| CCTTGTCG | -0.0495 |
| ATCTCATG | -0.133 |
| AATGGAAC | 0.132 |
| AAGAATAG | 0.0807 |
| ACCAGAGC | -0.137 |
| AACTCAAG | -0.153 |
| AGTTGGTA | 0.0112 |
| ACTTGGCG | -0.0651 |

| Sequence | PBM E-score |
| --- | --- |
| GCGACCCC | -0.0914 |
| CGAAAGCG | 0.185 |
| ACTTGGAA | -0.0616 |
| ATCTGGCA | 0.034 |
| CCAGACGA | 0.177 |
| ACGGCAAG | 0.00345 |
| AATGCCAC | -0.133 |
| AAGGAGCT | -0.0416 |
| CTACATGC | 0.074 |
| ACATCGGC | 0.0449 |
| GCATTCAC | -0.0368 |
| ACAATAGT | -0.184 |
| AAGAATAA | 0.00879 |
| AACAGACG | 0.122 |
| AAACTTCG | 0.122 |
| GCAAAGAC | -0.148 |
| CCTGAGAG | -0.284 |
| AAGCCACC | -0.207 |
| ACCCGTTC | 0.293 |
| AATTGGCT | -0.129 |
| CGTTTAAC | 0.473 |
| ACTAAACT | -0.0201 |
| CGAGCTAG | 0.108 |
| ATGACAAA | -0.0651 |
| ATCTAACC | 0.0817 |

| Sequence | PBM E-score |
| --- | --- |
| AGAGGACA | -0.245 |
| CGAAGGCG | 0.0587 |
| GTGTCATA | 0.0297 |
| ATCGCGAC | 0.11 |
| AGTTCGCA | 0.136 |
| AACCGCAT | 0.0802 |
| CCCAACGG | -0.233 |
| AAAATTGA | -0.0491 |
| AGTTTGCC | -0.228 |
| CCCTACCA | -0.0947 |
| CTACTGTA | 0.122 |
| TGGTCTAA | -0.0914 |
| GACAGGCC | -0.19 |
| GCGGCAGA | -0.18 |
| CGAAAGGC | 0.0523 |
| GATTGTGA | -0.112 |
| GACAGCTC | -0.00274 |
| GTTGAGCA | -0.0532 |
| GAAAGGAC | 0.0926 |
| CGAAGCGC | 0.0394 |
| TACTCTCA | -0.0653 |
| CCGAGCCC | -0.0448 |
| CGCCGGTC | -0.00408 |
| ATAGTTAA | 0.0708 |
| AGCTACCG | -0.269 |

| Sequence | PBM E-score |
| --- | --- |
| AGTGTACG | 0.417 |
| ATCCAATA | -0.114 |
| TAAGCGGA | 0.157 |
| CGTTAGCC | -0.0748 |
| CAGAACTA | -0.109 |
| CCCAACCC | -0.082 |
| ACGCCACT | -0.0432 |
| GATAATTA | 0.00873 |
| CACTGACG | -0.152 |
| CGCTCAAA | 0.0912 |
| CCGTTCTC | -0.0145 |
| AAATAGGA | -0.12 |
| AGAGGGTA | -0.102 |
| AACTGCTG | -0.235 |
| CGCAGCCG | -0.133 |
| CAGTTTGA | -0.0353 |
| GCCGCTCC | -0.0957 |
| ACACCTGT | -0.0936 |
| CGCTGCAA | 0.0554 |
| AAGGCGCT | -0.119 |
| GTCACAAA | 0.106 |
| AATTCTCT | -0.018 |
